Measurements as given in PMC12136788.
The other results are listed elsewhere or left out.

T1: UNK ZnF1-3 (human, UniProt Q9C0B0 31-174)
T1 sequence: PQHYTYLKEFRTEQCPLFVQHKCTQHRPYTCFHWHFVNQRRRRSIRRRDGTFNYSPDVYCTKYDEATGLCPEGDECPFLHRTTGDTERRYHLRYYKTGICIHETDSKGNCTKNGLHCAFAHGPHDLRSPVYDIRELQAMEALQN

B1: chr1:180251892:180251893:+_ENSMUSG00000026500_ENSMUST00000027781|mus_hu|motif|central (ssRNA)
RNA: GGGAGUUCUACAGUCCGACGAUCUGAACCAUACAAUAUUGAAUGCCGGGCGCAGGGAGUAUUUUCAACAUCUAAAAAUCCGGGGAGCUUAAGGGACUUCCAAUAUGAUAAAUGUAACGACGUACAAGAUGCCUUCCUCUCCUCCAACAGAGGAUUGAGCAUCA
B2: 46277305_46277425_453_CDS_ENSMUSG00000037697_ENSMUST00000051310|mouse|control|control (ssRNA)
RNA: GGGAGUUCUACAGUCCGACGAUCGGGGCCCCCUCCCGCCGCCCCGCCGCCCCCCGAGUUCUGGGCGACGAGCGGCGGCGGAGGCGAAGAAGAGCUGCCGCCGCCCGCGCUCUCGCCCUCGCUGUAGUAGCGCAACGACGAGCCCAACAGAGGAUUGAGCAUCA
B3: chr1:120316390:120316391:+_ENSMUSG00000064302_ENSMUST00000049404|mus_mus|FALSE|FALSE (ssRNA)
RNA: GGGAGUUCUACAGUCCGACGAUCCAACAGGGUCUGGUCGUGCUCAAGGUCAGCAGACUUCUGUCUGUCUGAGAAAUAGUCUAUGAGUUCCUGGCCAACCUGCAGCCGCUUUCCCACAUCCUUCUGCAGCACCUGGGCCAGACACAACAGAGGAUUGAGCAUCA
B4: chr1:171484892:171484893:+_ENSG00000117523_ENST00000367742|hu_hu|motif|central (ssRNA)
RNA: GGGAGUUCUACAGUCCGACGAUCUUUUUUUUCCUGAUCCCCAGCUGCCUGCAGGCUGGGAAAUUCUUGCUGAAACUGACGGUUCACUUGGAUUCCAUCUCCUUGCCCACCUUGCUUGUUACUGGCCCAUGAUUUGGGAGCAGGCAACAGAGGAUUGAGCAUCA
B5: chr19:27315782:27315783:+_ENSMUSG00000024924_ENSMUST00000167487|mus_hu|FALSE|FALSE (ssRNA)
RNA: GGGAGUUCUACAGUCCGACGAUCAGCCGCAUCAGUCCAGUAGAUGGUCUUGUACACCCAAUCAACAGCAAUGGCUGCAGGAUUAUAGACAUUGUCGAUCAUUUUAACAUGUCUACCAACCUUGUCAUCAAUUGAGGCACUGAACAACAGAGGAUUGAGCAUCA
B6: chr17:64801638:64801639:+_ENSG00000154229_ENST00000413366|hu_mus|hu_hu_hu_mus_False|68_98 (ssRNA)
RNA: GGGAGUUCUACAGUCCGACGAUCUAUAUAUAUAUAUAUAUACACACACAUAUAUAGUAAAACCCUAAUCUAUCACGUAAAGUAGCCAUUCAUUUUUAAAAUUACAUCUACAUUAAAAAAUUAAUAUAUCUGAUAGAGUGCCAGCAACAGAGGAUUGAGCAUCA
B7: 145565605_145565725_3093_CDS_ENSMUSG00000045482_ENSMUST00000132925|mouse|control|control (ssRNA)
RNA: GGGAGUUCUACAGUCCGACGAUCUGUAGAAGACCUUGUGCUCCACCACAUUGAGAUCCAUCGUGAAGAGUCGAGGCUGCAGCGUGGUACAGAACGUAUUGCCCUCCAUCAGUCCGAUCUGGGCGUUGGCAGGCUGGUGUCGCACAACAGAGGAUUGAGCAUCA
B8: chrX:20248820:20248821:+_ENSMUSG00000001924_ENSMUST00000001989|mus_hu|FALSE|FALSE (ssRNA)
RNA: GGGAGUUCUACAGUCCGACGAUCGGCGAAGUCCGUCACCACAAAGUCAGGUUCUGCCAGUGAGGCCACCAAGGAUUUAAAGCUAAUCUUCUUAGGUACUUUGACCUGACUGACGAUGCCUCCACGGAUGUAGUCGGAGAAGUUCAACAGAGGAUUGAGCAUCA
B9: chr1:46159212:46159213:+_ENSG00000159596_ENST00000372025|hu_mus|hu_hu_hu_mus_True|18_38 (ssRNA)
RNA: GGGAGUUCUACAGUCCGACGAUCUCUGAUCCCUCCCAAGAAAGCUAGGAAACCGGCUCCAUAAGCCAUCUGAGUGAAAGCUAGGACGGGGAUAUAAGUUUUUGUCAUUACCAUGAGCAGUGGUGGAGCAGUAAAGGGGAUUAACAACAGAGGAUUGAGCAUCA
B10: chr17:65740002:65740003:+_ENSG00000130935_ENST00000581375|hu_hu|hu_hu_hu_mus_False|18_38 (ssRNA)
RNA: GGGAGUUCUACAGUCCGACGAUCAACAAAUCUUUCUUCCCUGGACGAACAGGAAGAUUCAUAUUAAAAAAAAUAUAUAUCCAUCAAGUUAGGUGUGUAAUAUCAGACUUUACUCCCCACUUCAAUUGAGGUGGAUCUCUGAGUCAACAGAGGAUUGAGCAUCA
B11: chr11:23509083:23509084:-_ENSMUSG00000042208_ENSMUST00000043356|mus_hu|FALSE|FALSE (ssRNA)
RNA: GGGAGUUCUACAGUCCGACGAUCUGUUCCCCACAAUCGCCAGUAUACAUCUCUCCAAGAUUUUAAUUCUUCGAAAAGACUAUUCAAAUACUCAUGAACAUCCCAUGUCUUAUCUCUUAUGUGAAUAUAGACAAUAUUUCCACGCAACAGAGGAUUGAGCAUCA
B12: chr11:64571133:64571134:-_ENSG00000133895_ENST00000312049|hu_mus|FALSE|FALSE (ssRNA)
RNA: GGGAGUUCUACAGUCCGACGAUCCUUUCUUGGAACUGAAAAAUAAAUCUAUGUACAAAACAGGAAGAGGCUGGCCCUCCCCCACCCCGUGCAGAUUUCCUCCUGGGACCUCAGGGAGGUUCCCAGAGGGCUGGAAGAGGUCCUCAACAGAGGAUUGAGCAUCA
B13: chr19:30113593:30113594:+_ENSMUSG00000024817_ENSMUST00000025739|mus_hu|motif|central (ssRNA)
RNA: GGGAGUUCUACAGUCCGACGAUCGGGUUUAGCCUCAAUCUGUGUAGAUGUGCCAGGAAGAUGAUCAGGGUCUGGGCGAACGGGCAGCUGAAUUAUAUCAUUCAGUCCAACAUCAUAAUCAAAUAAGGUAUAUCCAUUUUCCAACAACAGAGGAUUGAGCAUCA
B14: 38089721_38089841_695_3pUTR_ENSMUSG00000022812_ENSMUST00000023507|mouse|control|control (ssRNA)
RNA: GGGAGUUCUACAGUCCGACGAUCGUCCCUCGGGGUCCCCUCCCCCGUCCGUGGCCCCGGCACGGCCGGCCUCCGCCCCUCGCCUUUGCUCAGCGGCUGCUCGGGAAGUGUCCGCGCUGUGCCCGGAGCCCGAAGCCCUGUCAGCAACAGAGGAUUGAGCAUCA
B15: chr7:116084223:116084224:+_ENSMUSG00000031029_ENSMUST00000033342|mus_hu|FALSE|FALSE (ssRNA)
RNA: GGGAGUUCUACAGUCCGACGAUCUGAUGCCCCUCCUACUUGCUGCAAGUCACUUGAGAGUCCAAUCACUCUGUUGGGGCUAAAGCAGGUCUUCAUGAUCAGGUCAACUCCGAUGCGUUCAGUGUCGUAGUACGCGUAUUUCACCAACAGAGGAUUGAGCAUCA
B16: chr1:220276048:220276049:+_ENSG00000067704_ENST00000302637|hu_hu|hu_hu_hu_mus_True|58_58 (ssRNA)
RNA: GGGAGUUCUACAGUCCGACGAUCGCAAAUUGCCUGGUUGGCGGGAAUUGUCCAAGGCUGGGUGGUCCAAACUAAAAUACUAACAGGGGAUGAGGCAUCUGUAAGAGACUCCAACUUCGGAGGAGGUCUCAGGAGGGGGAAUCUCAACAGAGGAUUGAGCAUCA
B17: chr13:36245089:36245090:+_ENSG00000172915_ENST00000537702|perfect_dup|motif|central (ssRNA)
RNA: GGGAGUUCUACAGUCCGACGAUCUUCUGCUGCUUCUCUUCAGUACCUGUUCUGAUGCUCAUAAUGCCACCGAUUAAAAUCGGUAUUAAAAGCUACAAUGCUGCCGGAAGCCAUGCCAGUGAUCAGAGUCCUUUGGUCAUGGGACAACAGAGGAUUGAGCAUCA
B18: chr2:217001844:217001845:+_ENSG00000079246_ENST00000392132|hu_hu|hu_hu_hu_mus_False|58_78 (ssRNA)
RNA: GGGAGUUCUACAGUCCGACGAUCACCAACUUGAGGAUUAGAUCUUUUGUCAUAAGCAUAUCGAACUAUGGCGACCAUGUCUAAGUCAUCCAAAGCAUGAACGAGAGAGGAAAGGGCAACAGCUGCCGCCUCAUCAUCCUUUGCCAACAGAGGAUUGAGCAUCA
B19: chr7:13615833:13615834:+_ENSMUSG00000005566_ENSMUST00000005705|mus_hu|FALSE|FALSE (ssRNA)
RNA: GGGAGUUCUACAGUCCGACGAUCCUUGUUGAAUUGCUUGAACAUGCGGCCCACAUCCUGGGCAAACUCCUGUGGGGAGCUGUAGGGAGGUGACAACUUCUCCUGGAGGCGGGCACGGAUCAGGGUCAGAUCCAGGGUGCCACCCAACAGAGGAUUGAGCAUCA
B20: chr6:44218252:44218253:+_ENSG00000096384_ENST00000371646|hu_hu|FALSE|FALSE (ssRNA)
RNA: GGGAGUUCUACAGUCCGACGAUCAUUAGUGAGGCUCUUGUAGAAUUCUCCAUACUCCUCUUGGGUGAUGUCAUCAGGGUUUCUGGUCCAAAUAGGCUUGGUCUUGUUUAGUUCUUCCUGAUCAAUGUAUUUCUCUUUGAUCUUCAACAGAGGAUUGAGCAUCA
B21: chr13:31725248:31725249:-_ENSG00000120694_ENST00000320027|perfect_dup|FALSE|FALSE (ssRNA)
RNA: GGGAGUUCUACAGUCCGACGAUCUUUGGAUUUUGCAUCCAACUUGUACUUAGUUUUAAAUUCUGCACAAAAAUGUUCCACUAACUUUUCAUCGAAGUUUUUUCCUCCUAAGAAAGGAUCAAAAGCUGUUCCCAGUACCUUCAACAACAGAGGAUUGAGCAUCA
B22: chr2:9570881:9570882:+_ENSG00000119203_ENST00000238112|hu_mus|hu_hu_hu_mus_False|98_108 (ssRNA)
RNA: GGGAGUUCUACAGUCCGACGAUCACUUGUCUUCUGUAGAAACCAGGGCAGGGCUCCACAGUGAUCCAAAUGGAAAUGACUGAUCAACAGAAGGUCGAUCUCAGCUGGGUCGAUAAGGUCAAUGUAAGGAAGGGCAUCCAUUCCCAACAGAGGAUUGAGCAUCA

The binders below were run against T1, UNK ZnF1-3 (assay: nsRBNS (natural sequence RNA bind-n-seq); RBNS binding buffer (assumed for nsRBNS): 25 mM Tris pH 7.5, 150 mM KCl, 3 mM MgCl2, 0.01% Triton X-100, 500 ug/ml BSA, 20 U/ml SUPERase-In, 4 C; UNK is unkempt and MSI1 is Musashi-1; names of the RNAs are library labels; protein concentration not given here; high values mean tight binding).

Binder | binding signal
B1 | 1.53 enrichment R
B2 | 0 enrichment R
B3 | 1.16 enrichment R
B4 | 0.667 enrichment R
B5 | 0.414 enrichment R
B6 | 1.83 enrichment R
B7 | 0.984 enrichment R
B8 | 1.01 enrichment R
B9 | 1.63 enrichment R
B10 | 0.875 enrichment R
B11 | 1.09 enrichment R
B12 | 1.03 enrichment R
B13 | 1.27 enrichment R
B14 | 1.75 enrichment R
B15 | 0.602 enrichment R
B16 | 2.07 enrichment R
B17 | 1.05 enrichment R
B18 | 1.75 enrichment R
B19 | 0.955 enrichment R
B20 | 0.34 enrichment R
B21 | 1.41 enrichment R
B22 | 1.46 enrichment R
